# Test results taken from PubChem BioAssay AID686979 (National Center for Advancing Translational Sciences (NCATS), 2013).
# “And” between values parts separate entries of the source, which are not always exact repeats. Equal values may be shown once. Out of some 420,000 compounds screened, about 50,000 (12%) were called active. The shares of active, inactive and inconclusive entries below differ from those in the screen. Calls come from the whole dose curve; as a rule, active = well fitted inhibition curve with a large enough effect; inconclusive = small, poorly fitted or top-dose-only effect; inactive = flat fitted curve, though single readings scatter. A potency beside an inconclusive call is a rough fit, not a confirmed value.
# Assay: qHTS for Inhibitors of human tyrosyl-DNA phosphodiesterase 1 (TDP1): qHTS in cells in presence of CPT; note: nearly all actives have a fitted effect of over 55% in size
# Details: chicken DT40 Tdp1-/-;hTDP1 cells + 20 nM CPT, ATP luminescence, 48 h; activity change, negative = growth inhibition: at 46.2 µM (top of the series)
# In short: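 Cell growth measured by CellTiter-Glo luminescence after a minimum 48 h, 37 C compound exposure with 20 nM CPT in Tdp1-knockout DT40 cells stably expressing hTDP1, seeded 400/well; qHTS titration format.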
# % is set by controls: 0 for no effect and ±100 for the full control effect; potency is the fitted concentration of half-maximal effect; tags give direction and shape of the fitted curve.
SMILES,Potency,"activity change, negative = growth inhibition"
O=C(NCCc1cccs1)Nc1ccc2nc([C@@H]3O[C@H](CO)[C@@H](O)[C@H]3O)[nH]c2c1,inactive,–
Cc1cc(C)n(-c2nc(NCCO)c3c4c(sc3n2)CCCC4)n1,"inconclusive: 29.1 µM [inhibitor, single point]",–
COc1cc(C(=O)Nc2nc(-c3cc(C)ccc3C)c(C)s2)ccc1OCC(=O)Nc1ccc(F)cc1,"inconclusive: 29.1 µM [inhibitor, single point]",–
Cc1nc2ccc3nc(NC(=O)c4ccc5c(c4)OCCO5)sc3c2s1,"inactive and inconclusive: 17.8 µM [inhibitor, single point]",–
CC(N)=Nc1ccc([N+](=O)[O-])cc1,inactive,–
CCN(CC)C(=O)C1=C(C)N(Cc2ccc(F)cc2)C(=O)C(CC(=O)NCc2cccc3ccccc23)C1 (stereo unspecified),inactive,–
Cc1c(C(=O)Nc2nccs2)oc2ccc(Br)cc12,"inconclusive: 29.1 µM [inhibitor, single point]",–
COc1cc(C(=O)N2CCN(c3ccc([N+](=O)[O-])cc3)CC2)ccc1OCc1c(C)noc1C,"inconclusive: 18.4 µM [inhibitor, single point]",–
COc1ccc(C2NC(=O)C(C#N)=C(S)N2c2ccc(C)cc2)cc1OC (stereo unspecified),"inconclusive: 14.6 µM [inhibitor, partial curve]",–
Cc1ccc(S(=O)(=O)N2CCN(S(=O)(=O)c3ccccc3Br)CC2)cc1,"inconclusive: 13 µM [inhibitor, partial curve]",–
CCN(CC)C(=O)N1CCN(S(=O)(=O)c2ccc(C)cc2)CC1,"inconclusive: 16.4 µM [inhibitor, single point]",–
Nc1c(-c2ccc(Cl)cc2)cnn1-c1cc(C(F)(F)F)cc(C(F)(F)F)c1,"inconclusive: 29.1 µM [inhibitor, single point]",–
O=C(NCc1ccc(F)c(F)c1)c1ccc(-c2ccc(F)c(F)c2)c2ccoc12,active: 18.4 µM,–
CCc1ccc(OCc2nc(-c3ccccn3)no2)c(Br)c1,"inconclusive: 1.84 µM [inhibitor, partial curve, poor fit]",–
Cc1nc2sc(C(=O)OCC(=O)N3c4ccccc4CC3C)c(C)c2c(=O)[nH]1 (stereo unspecified),"inconclusive: 29.1 µM [inhibitor, single point]",–
Cc1cc(=O)n2c(C(=O)Nc3ccc(C(=O)OC(C)C)cc3)c(C(=O)Nc3ccccc3)sc2n1,"inconclusive: 29.1 µM [inhibitor, single point]",–
COc1cccc(C=O)c1OCCCOc1cccc2cccnc12,"inconclusive: 16.4 µM [inhibitor, single point]",–
O=S(=O)(c1ccccc1)c1nc(-c2ccco2)oc1NCCCN1CCOCC1,inactive,–
CCOC(=O)[C@]12CCC=C1N(Cc1ccc(Cl)cc1Cl)C(=O)[C@H](CC(=O)NCCCOC)C2,"inconclusive: 25.9 µM [inhibitor, single point]",–
CCn1cc2nc(SCC(=O)Nc3ccc(OC)c(OC)c3)n(Cc3ccc(OC)cc3)c(=O)c2n1,"inconclusive: 16.4 µM [inhibitor, single point]",–
Nn1c(SCC(=O)NCC2CCCO2)nnc1-c1cc(Cl)ccc1Cl (stereo unspecified),inactive,–
Cc1ccccc1CSc1nn2c(=O)c(C)nnc2s1,inactive,–

SMILES,Potency,"activity change, negative = growth inhibition"
O=C(Nc1noc2ccccc12)c1cccc(F)c1,"inconclusive: 4.11 µM [inhibitor, single point]",–
Clc1ccc(CSc2nnc(-c3sccc3-n3cccc3)o2)cc1,inactive,–
Cc1ccc(-c2nnc(N3CCN(C(=O)CN4C(=O)c5ccccc5C4=O)CC3)c3ccccc23)cc1,"inconclusive: 29.1 µM [inhibitor, single point]",–
CCS(=O)(=O)NC(C)C(c1cccs1)N1CCN(c2ccc(F)cc2)CC1 (stereo unspecified),"inconclusive: 29.1 µM [inhibitor, single point]",–
CN(CCc1ccccn1)C(=S)Nc1ccc(Cl)c(Cl)c1,inactive,–
Cc1ccc(NC(=O)C2CC2c2ccccc2)cc1 (stereo unspecified),inactive,–
COc1ccc(Cl)cc1Nc1ncnc2c1nc1n2CCCC1,active: 11.6 µM,–
COC(=O)c1sc2nc(CSc3ccc(Br)cc3)[nH]c(=O)c2c1C,"inconclusive: 25.9 µM [inhibitor, single point]",–
COCCc1nn2c(=O)cc(COC(=O)COc3ccccc3C)nc2s1,inactive,–
CC(/C=N/O)Cc1ccc2c(c1)OCO2 (stereo unspecified),"inconclusive: 20.6 µM [inhibitor, partial curve, poor fit]",–
N#Cc1cc2c(nc1SCC(=O)Nc1sc3c(c1C#N)CCC3)CCCCC2,"inconclusive: 9.2 µM [inhibitor, partial curve, poor fit]",–
Cc1ccc(C(=O)c2c(NC(=O)c3ccncc3)sc3c2CCCC3)cc1,"inconclusive: 8.2 µM [inhibitor, partial curve]",–
CCC(=O)Nc1ccc2nc(SCC(=O)N3CCc4ccccc43)sc2c1,active: 16.4 µM,–
c1ccc(-c2cc(-c3nc4ccccc4[nH]3)c3ccccc3n2)cc1,"inconclusive: 23.1 µM [inhibitor, single point]",–
O=c1cnc2ccccc2n1Cc1ccccc1C(F)(F)F,–,inconclusive: -33.3% [inhibitor]
COc1ccc(C(=O)C(=NNc2ccccc2)c2ccc(OC)cc2)cc1,"inconclusive: 29.1 µM [inhibitor, single point]",–
Cc1ccc2c(c1)c(N=Nc1cccc(C(=O)O)c1)c(O)n2C,"inconclusive: 23.1 µM [inhibitor, partial curve, poor fit]",–
COc1cc(C(=O)NC(=S)NCc2ccco2)cc(OC)c1OC,active: 18.4 µM,–
COc1cc(NC(=O)CN2C(=O)COc3ccccc32)cc(OC)c1,inactive,–
O=c1c2ccccc2n2c(-c3ccc(F)c(F)c3)nnc2n1CCc1ccccc1,"inconclusive: 10.3 µM [inhibitor, single point]",–
O=S(=O)(NCCSCc1c(Cl)cccc1Cl)c1ccc2c(c1)OCCO2,"inconclusive: 23.1 µM [inhibitor, single point]",–
COc1ccc(S(=O)(=O)N2CCOCC2)cc1NC(=O)c1ccccc1-c1ccc(C(F)(F)F)cc1,"inconclusive: 29.1 µM [inhibitor, single point]",–

SMILES,Potency,"activity change, negative = growth inhibition"
COCC(=O)N[C@@H]1c2cc(OC)c(OC)cc2C[C@H]1OCc1ccccc1,inactive,–
O=C(CSc1nnc(Cc2cccs2)n1C1CCCCC1)N1CCCc2ccccc21,"inconclusive: 16.4 µM [inhibitor, single point]",–
O=C(Nc1cccc(NC(=O)c2ccc(-c3ccc(Br)cc3)o2)c1)c1ccco1,"inconclusive: 23.1 µM [inhibitor, single point]",–
CCOC(=O)c1c(S(=O)(=O)N2CCCC(C(=O)Nc3ccc(C)cc3C)C2)c(C)n(CC)c1C (stereo unspecified),"inconclusive: 3.66 µM [inhibitor, partial curve, poor fit]",–
CCN1C(=O)[C@H]2[C@@H](c3ccc(-c4ccccc4)cc3)N3CCCC[C@@]3(C(=O)OC)[C@H]2C1=O,"inconclusive: 29.1 µM [inhibitor, single point]",–
COc1cc(/C=C(\C#N)C(=O)Nc2cc(C(F)(F)F)ccc2Cl)ccc1OCC(=O)Nc1cccc(C(F)(F)F)c1,active: 23.1 µM,–
CN1CCN(C2Cc3ccc(F)cc3Sc3cc(F)c(Cl)cc32)CC1 (stereo unspecified),active: 18.4 µM,–
COCCNC(=O)/C(C#N)=C/c1cccc(/C=C(\C#N)C(=O)NCCOC)c1,active: 5.8 µM,–
C=CCOc1ccc(CN(C)C(=O)CNC(=O)c2ccc(-c3ccccc3)cc2)cc1,"inconclusive: 29.1 µM [inhibitor, single point]",–
CC(C)CC1OC(C(C)C)Cc2[nH]c(=S)[nH]c(=O)c21 (stereo unspecified),"inconclusive: 29.1 µM [inhibitor, single point]",–
COc1ccc(-n2c(Cc3cccn3C)nnc2SCC(=O)Nc2cccc(F)c2)cc1,active: 23.1 µM,–
CCOC(=O)C1CCN(C(=O)CSc2c3c(nc4ccc(Cl)cc24)CCCC3)CC1,"inconclusive: 29.1 µM [inhibitor, single point]",–
CC(=O)Nc1ccc(C(=O)CSc2nnc3cc(C)c4ccccc4n23)cc1,"inconclusive: 6.51 µM [inhibitor, single point]",–
O=C(CSCc1cccc(CSCC(=O)Nc2ccc3ccccc3c2)n1)Nc1ccc2ccccc2c1,"inconclusive: 18.4 µM [inhibitor, single point]",–
CCCCn1c(CCC)nc([N+](=O)[O-])c1Sc1ccc(Cl)cn1,active: 18.4 µM,–
CCOc1ccccc1-n1nnnc1SCC(=O)NCC1(N2CCOCC2)CCCCC1,"inconclusive: 29.1 µM [inhibitor, single point]",–
CCCCNC(=O)c1ccc2c(=O)n(-c3ccccc3)c(=O)[nH]c2c1,inactive,–
CCN(C[C@H]1N[C@@](Cc2ccccc2)(C(=O)OC)[C@H]2C(=O)N(C)C(=O)[C@@H]12)S(=O)(=O)c1ccc(OC(F)(F)F)cc1,"inconclusive: 18.4 µM [inhibitor, single point]",–
COC(=O)/C=C1/SC(=NC(=O)c2ccc(F)cc2)NC1=O,inactive,–
C=C1C(=O)O[C@H]2C[C@]3(C)C([C@@H](OC(=O)/C(C)=C/C)[C@H]12)[C@](C)(O)CC[C@H]3O (stereo partly specified),active: 14.6 µM,–
O=C(NCc1ccc(Cl)cc1)C(=O)NCC(c1ccco1)S(=O)(=O)c1cccs1 (stereo unspecified),"inconclusive: 29.1 µM [inhibitor, single point]",–
Cc1cc(SCC(=O)c2ccc(Br)cc2)cc(C)[o+]1,"inconclusive: 12.6 µM [inhibitor, single point]",–
